This note sets out measurements from PubChem BioAssay AID488969 (Vanderbilt High Throughput Screening Facility, 2010).

The full ranking holds about 110,000 compounds; the median of “z-score” is about -0.1, and the highest 2% start at about 2. Some of the results follow.

This assay addresses Metabotropic glutamate receptor 8 (Rattus norvegicus) (UniProt P70579). Briefly: rat mGluR8 modulators via GIRK flux, primary screen, cell-based, thallium flux, HTS (AID 488969). Conditions: HEK293 rat mGluR8, GIRK (G protein-gated inwardly rectifying potassium channel) thallium flux, FluoZin2; at 10 µM; stronger effect = higher value; submaximal glutamate (EC20) added with thallium.
Sequence of UniProt P70579 (P70579 whole entry, looked up): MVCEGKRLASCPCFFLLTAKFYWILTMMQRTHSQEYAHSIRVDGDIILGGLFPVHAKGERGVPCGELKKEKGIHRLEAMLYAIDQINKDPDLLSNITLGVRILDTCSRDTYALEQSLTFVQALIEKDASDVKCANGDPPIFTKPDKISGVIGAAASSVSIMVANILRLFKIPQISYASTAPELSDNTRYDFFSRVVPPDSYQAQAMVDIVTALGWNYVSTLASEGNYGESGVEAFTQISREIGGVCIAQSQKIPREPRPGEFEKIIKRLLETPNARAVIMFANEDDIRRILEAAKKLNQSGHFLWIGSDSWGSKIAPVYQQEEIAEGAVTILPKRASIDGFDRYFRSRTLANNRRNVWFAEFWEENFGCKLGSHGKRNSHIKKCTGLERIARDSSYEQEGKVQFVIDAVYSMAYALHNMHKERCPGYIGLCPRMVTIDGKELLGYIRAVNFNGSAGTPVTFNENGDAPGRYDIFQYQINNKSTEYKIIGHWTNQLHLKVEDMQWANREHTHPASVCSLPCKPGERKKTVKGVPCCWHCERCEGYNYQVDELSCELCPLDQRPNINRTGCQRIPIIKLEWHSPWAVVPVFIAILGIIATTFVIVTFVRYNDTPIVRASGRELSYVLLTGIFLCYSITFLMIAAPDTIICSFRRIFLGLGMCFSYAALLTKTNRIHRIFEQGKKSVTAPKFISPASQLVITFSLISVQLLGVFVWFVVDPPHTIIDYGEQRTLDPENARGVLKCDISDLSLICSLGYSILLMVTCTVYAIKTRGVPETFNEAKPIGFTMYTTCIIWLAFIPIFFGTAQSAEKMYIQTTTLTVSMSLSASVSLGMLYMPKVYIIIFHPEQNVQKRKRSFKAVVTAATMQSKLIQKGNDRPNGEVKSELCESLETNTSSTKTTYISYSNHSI
Molecule `CCOCC(=O)Nc1c(C(=O)Nc2ccc(OC)cc2OC)oc2ccccc12` showed a z-score of 0.0425.

`CCN1CCN(C(=S)Nc2ccc3nc(N4CCN(C)CC4)cc(C)c3c2)CC1`: the z-score came out at 0.0989.

Molecule `C=C(C)C1CC=C(C)/C(=N/NC(=O)c2cccc([N+](=O)[O-])c2)C1` (configuration not stated) registered a z-score of 0.396.

In the case of `Cc1nonc1NC(=O)N1CCCC1`, the z-score is -0.0831.

For the molecule `CCOC(=O)N1CCN(C(=O)c2nc3ccccc3s2)CC1`, the z-score is 2.8.

`CCCOc1ccc(/C=N/Nc2ccccc2[N+](=O)[O-])c(O)c1` returned a z-score of -0.138.

`Cc1ccc(C(=O)CSc2nnc(COc3ccc(C#N)cc3)n2-c2ccccc2)cc1` gave a z-score of 0.655.

Consider `CC(=O)Nc1ccc2ccccc2c1`, for which the z-score is -0.118.

`CC(=O)N1N=C(C)CC1c1ccc(OCc2ccccc2)cc1` (configuration not stated) showed a z-score of -0.0267.

Regarding `CSc1nc2ccc3nc(NC(=O)c4ccc(C)cc4)sc3c2s1`, the z-score is -0.276.

The molecule `Cc1n[nH]c(C)c1C(=O)CC1(O)C(=O)N(CCc2ccccc2)c2ccc(Cl)cc21` (configuration not stated) yielded a z-score of 0.473.

`Cc1cccc(Oc2coc3cc(OC(=O)c4cc5ccccc5oc4=O)ccc3c2=O)c1` showed a z-score of -0.0322.

In turn, `NC(=S)Nc1nc2ccccc2[nH]c1=O` yielded a z-score of 0.608.

With `CCC(C(=O)O/N=C(\N)c1cccc(C)c1)c1ccccc1` (configuration not stated), the z-score is -0.667.

For the molecule `O=C(COC(=O)c1cccnc1Cl)c1cccc(Cl)c1`, the z-score was -0.133.

As to `CCC1CCCCN1C(=O)CSc1nnc(-c2cccs2)o1` (configuration not stated), the z-score turned out to be 0.801.

`O=C1c2cccc(OCC(=O)N3CCCc4ccccc43)c2CCN1Cc1ccc(Br)cc1` gave a z-score of -0.133.

For the molecule `N#Cc1ccc(Cl)cc1NC(=O)COC(=O)c1ccc2c(c1)OCCO2`, the z-score worked out at 0.363.

For the molecule `c1ccc(OCc2nc(-c3cccs3)no2)cc1`, the z-score was 0.455.

Molecule `COc1ccc2nc(SCC(=O)NC(C)C)[nH]c2c1` came in with a z-score of 0.0246.

`N#Cc1c(-c2cccnc2)c2c([nH]c1=S)CCCC2` showed a z-score of -0.285.

In the case of `Cc1ccc(N(c2ncnc(N)c2[N+](=O)[O-])C2CCCCC2)cc1`, the z-score is -0.189.

For the molecule `CCN(CC)S(=O)(=O)c1ccc(S(=O)(=O)N(CC(=O)Nc2ccccc2)Cc2ccco2)cc1`, the z-score is -0.083.

`COC(=O)c1ccc(CSc2nc3ccccc3[nH]2)o1` yielded a z-score of 0.0676.

In turn, `Cc1ccc(OCC(=O)N/N=C/c2cccn2C)cc1` registered a z-score of 1.01.

`COn1c2c(c3c4nonc4ccc31)CCCC2` yielded a z-score of -0.606.

For `CCCSc1nnc2n(N)c(=O)c3ccccc3n12`, the z-score is -0.437.

Consider `CCC(=O)Nc1c2c(nn1-c1ccccc1C)CSC2`, for which the z-score was -0.809.

As for `CCCCOc1ccc(NC(=O)CSc2nnnn2C)cc1`, the z-score is 0.6.

In turn, `N#C/C(=C/c1ccc(Sc2nc3ccccc3[nH]2)o1)c1cccc(Br)c1` registered a z-score of -0.0515.

`CCc1nnc(-n2nc(C)cc2-c2ccccc2)n1N` gave a z-score of 0.0616.

Consider `CC1(C)C(C=C(Cl)Cl)C1C(=O)N(Cc1cccc(Cl)c1)C1CCS(=O)(=O)C1` (configuration not stated), for which the z-score is -0.0797.

With `N#Cc1cc(C(=O)c2ccccc2OCC(=O)Nc2ccccc2Cl)cn(C2CCCCC2)c1=O`, the z-score was -0.433.

Molecule `CCn1c(C)cc2c(c1=O)C(c1ccc3c(c1)OCO3)C(C#N)=C(N)O2` (configuration not stated) displayed a z-score of -0.0565.

As to `CCOC(=O)N1CCC(N2CCN(S(=O)(=O)c3ccc(NC(C)=O)cc3)CC2)CC1`, the z-score came to 0.0347.

On to `CC1=CC(C)C2COC(c3ccc[n+](C)c3)C1C2C` (configuration not stated), for which the z-score was 0.134.

On to `COc1ccc(N2C(=O)c3ccc(NC(C)=O)cc3C2=O)cc1`, for which the z-score was -0.144.

`COc1ccc(NC(=S)NNC(=O)COc2ccc(Cl)cc2Cl)cc1` showed a z-score of 2.95.

The molecule `CC(C)O/C(=N\S(=O)(=O)c1ccc(Cl)cc1)c1ccccc1` had a z-score of 0.0356.

`Cc1[nH]c2ccccc2c1C(=O)COC(=O)Cn1c(C(F)(F)F)nc2ccccc21` showed a z-score of -0.292.

In the case of `Cc1cccc(NC(=O)c2ccc(Cn3cc(C(F)(F)F)ccc3=O)cc2)c1`, the z-score is -0.228.

Turning to `CC(=O)Oc1ccc(C(=O)Cc2ccc3ccccc3n2)c(O)c1C`, the z-score is -0.4.

The molecule `CCCn1c(C)cc(C(=O)CN2C(=O)c3cccc(N)c3C2=O)c1C` gave a z-score of -0.305.

The molecule `Cc1c(C(=O)OC2CCCCC2)[nH]c2c1C(=O)CC(C)(C)C2` came in with a z-score of -0.811.

Consider `CC(=O)Nc1ccc(N(C)S(C)(=O)=O)cc1`, for which the z-score is -0.158.

For `CCc1c(C)sc(NC(=O)CSc2nc3c(c(C(F)(F)F)n2)CCc2ccccc2-3)c1C#N`, the z-score was -0.14.

`CCC(=O)N1CCN(c2ccc(NC(=O)c3cccs3)cc2)CC1` yielded a z-score of -0.0578.

With `CC1(C)CC(CCNC(=O)c2ccco2)CC(C)(C)N1`, the z-score was -0.0338.

Consider `Cc1cc(C(=O)NC2=NCCS2)cs1`, for which the z-score was 0.654.

The molecule `CC(=O)Nc1ccc(C(=O)OCC(=O)c2cccc([N+](=O)[O-])c2)cc1` showed a z-score of -0.304.

In turn, `Cc1nc2ccccn2c1C(=O)N/N=C/c1ccc2c(c1)OCO2` had a z-score of 0.65.

For the molecule `CC(=O)Oc1oc(-c2ccccc2)nc1C=Nc1ccccc1`, the z-score was -1.82.

`CCC(=O)N1CCN(c2ccc(NC(=O)c3cc4ccccc4o3)cc2Cl)CC1`: the z-score was -0.0929.

`CCc1ccc(NC(=O)CCn2cccc2)cc1`: the z-score is -0.0565.

`COC(=O)Nc1nnc(-c2ccncc2)s1` came in with a z-score of 0.038.

`O=C(CSCc1ccc(F)cc1)Nc1ccccc1C(=O)N1CCOCC1` gave a z-score of -0.0357.

`CC1CCC(C(C)C)C(OC(=O)CSc2nccc(=O)[nH]2)C1` (configuration not stated) displayed a z-score of -0.0251.

`COc1ccc(OC)c(C(c2nnnn2CCc2ccccc2)N2CCN(c3ccccc3)CC2)c1` (configuration not stated) displayed a z-score of -0.183.

In the case of `Cc1cc(NC(=O)CSc2nc(C3CCCCC3)nc3ccccc23)no1`, the z-score was 0.0268.

The molecule `C#CC[N+](C)(C)C(C#Cc1ccccc1)CC=C` (configuration not stated) displayed a z-score of -0.0714.

Molecule `Cc1cc(OCc2nn[nH]n2)c2c(C)c(Cc3ccccc3)c(=O)oc2c1` gave a z-score of -0.914.

For `Cc1ccc(C(=O)Nc2ccccc2C(=O)NC(CC(=O)O)C(=O)O)cc1` (configuration not stated), the z-score is -0.0295.

As to `Cc1noc(NS(=O)(=O)c2ccc(NC(=O)CSc3ncccn3)cc2)c1C`, the z-score was found to be 0.774.

Molecule `COc1ccc(/C(O)=C2/C(=O)C(=O)N(CCN3CCOCC3)C2c2ccccn2)cc1OC` (configuration not stated) gave a z-score of 0.0595.

The molecule `O=C(/C=C/c1ccccc1Cl)NCc1ccco1` gave a z-score of -0.133.

`C=CCn1c(C)cc(C(=O)COc2ccc(C)nc2[N+](=O)[O-])c1C` showed a z-score of -0.251.

Consider `COc1cc(C(=S)N2CCOCC2)cc(OC)c1OC(=O)c1cc([N+](=O)[O-])cc([N+](=O)[O-])c1`, for which the z-score amounted to 0.243.

The molecule `CCOC(=O)CCCNC(=O)COC(=O)[C@@H]1CCCN1S(=O)(=O)c1ccc(Cl)cc1` gave a z-score of -0.353.

`Cc1nc(N)sc1N=Nc1ccc(F)cc1`: the z-score is -0.0101.

Regarding `COC(=O)c1sc(NC(=O)COc2ccc(OC)cc2)nc1C`, the z-score was 0.335.

`COC(=O)c1ccc(NC(=O)CSCc2ccccc2C)cc1` gave a z-score of 0.192.

Consider `CCn1c(SCC(=O)NCCc2ccc(OC)c(OC)c2)nc2c1c(=O)n(C)c(=O)n2C`, for which the z-score was determined as 0.665.

With `CCOc1ccccc1NC(=O)/C=C/c1ccccc1[N+](=O)[O-]`, the z-score amounted to 1.17.

On to `O=C(NCc1ccco1)C1CCN(S(=O)(=O)Cc2ccccc2)CC1`, for which the z-score is -0.283.

In turn, `CCOC(=O)C1CCN(Cc2oc(CO)cc(=O)c2O)CC1` displayed a z-score of -0.277.

As for `COc1ccc(C2(CNC(C)=O)CCOCC2)cc1OC`, the z-score came to 0.1.

The molecule `COc1ccc(OCC(=O)N2CCN(C(=O)c3cccs3)CC2)cc1` yielded a z-score of -2.73.

`COCCCNC(=O)c1cc2c(-c3ccc(Cl)cc3)nn(C)c2s1` showed a z-score of -0.424.

Turning to `CCOC(=O)NCc1ccc2c(c1)OCO2`, the z-score stood at 0.481.

`CCCc1ccc(S(=O)(=O)NCCc2ccncc2)cc1`: the z-score came to 0.535.

Molecule `Nc1nc(CN2CCN(Cc3ccccc3)CC2)nc(Nc2ccccc2)n1` had a z-score of 0.26.

`Cc1nc(SCC(=O)NC(=O)NCCC(C)C)c2c(-c3cccs3)csc2n1`: the z-score was -0.109.

Take `Cc1nn(-c2ccccc2Cl)c(Cl)c1/C=N/Nc1cccc(C(=O)O)c1`: the z-score was -0.807.

As for `CCC(=O)Nc1cccc(C(=O)/C=C/c2ccccc2)c1`, the z-score stood at 0.248.

`CCOP(=O)(c1ccccc1)C(O)c1ccc(F)cc1` (configuration not stated) gave a z-score of -0.11.

`CCn1c(SCC(=O)Nc2cc(C)on2)nc2sc3c(c2c1=O)CCCC3` gave a z-score of -0.225.

`O=C(NN1C(=O)/C(=C\c2cccnc2)SC1=S)C(c1ccccc1)c1ccccc1` showed a z-score of -0.22.

The molecule `CSc1nc(-c2ccccc2)c(-c2ccccc2)[nH]1` returned a z-score of -0.111.

`CCCNc1cc(C)c(C#N)c2nc3ccccc3n12` had a z-score of -1.34.

Turning to `COc1ccc(/C=C2/C(=O)N=C(N)N2C)cc1OC`, the z-score is -0.0391.

For the molecule `O=C(NCCCn1ccnc1)NC(C(F)(F)F)C(F)(F)F`, the z-score was 0.00784.

`O=C(Nc1ccc(C(F)(F)F)cc1Cl)c1ccc(Cn2cc(Br)cn2)o1` showed a z-score of -0.45.

Take `CN(CC(=O)N1CCCCCC1)S(=O)(=O)c1cccc2cccnc12`: the z-score is -0.119.

On to `CCOc1ccc(-c2nnc3sc(-c4c(OC)cccc4OC)nn23)cc1`, for which the z-score is 0.036.

As for `COc1ccc(NC(=O)CSc2nc(N3CCCCC3)nc(N3CCCCC3)n2)cc1`, the z-score was 0.216.

In turn, `COc1ccc(-c2ncccc2OC(=O)C23CC4CC(CC(C4)C2)C3)cc1` had a z-score of 1.48.

Molecule `O=C(CC1S/C(=N\S(=O)(=O)c2ccc(F)cc2)N(c2ccccc2)C1=O)Nc1ccccc1` (configuration not stated) gave a z-score of 1.02.

Molecule `CCn1c(SCC(=O)N/N=C/C=C/c2ccco2)nc2ccccc21` yielded a z-score of -0.136.

`Cc1cc(C)n(-c2ccc(C(=O)O)cc2)n1` yielded a z-score of -0.00992.

Regarding `COc1ccc(C2NC(C(=O)O)Cc3c2[nH]c2ccccc32)cc1OC` (configuration not stated), the z-score was -0.175.

Turning to `COc1cc(-c2nc(-c3ccccc3)c(-c3cccs3)[nH]2)cc(OC)c1OC`, the z-score is -0.628.

`CN(C)CCCN1C(=O)CSC1c1ccccc1` (configuration not stated) registered a z-score of -0.244.

Take `COC(=O)C1CCN(C(=O)c2sc3nc(-c4ccccc4)cn3c2C)CC1`: the z-score was -0.507.

`CCOC(=O)CCCSc1nc(-c2ccc3c(c2)OCO3)cc(C(F)(F)F)c1C#N` yielded a z-score of -0.116.

Consider `COc1ccc(CC(=O)NNC(=S)Nc2ccc(Br)cc2)cc1`, for which the z-score was found to be 0.363.

`O=C(CN1CCCN(S(=O)(=O)c2ccc(Br)cc2)CC1)Nc1ccc2cn[nH]c2c1` displayed a z-score of -0.0293.

In the case of `CN(C)/C=N/c1c(C#N)cnn1-c1ncnc2sc(-c3ccccc3)cc12`, the z-score is 0.831.

Consider `COc1ccc(NC(=O)CCC2CCCC2)cc1OC`, for which the z-score was found to be 0.0836.

Take `Cc1ccc(NC(=O)/C(C#N)=C/c2ccsc2)c(C)c1`: the z-score was -0.374.

In turn, `COC(=O)C1=C(C)N(c2cccc3ccccc23)C(=O)C1` showed a z-score of -1.36.

The molecule `CCCCCCCC(=O)OC(CN1CCCCC1)CN1CCCC1=O` (configuration not stated) registered a z-score of 0.00336.

With `COc1ccc(C(=O)Oc2cccc(Nc3ncnc4ccccc34)c2)cc1OC`, the z-score is -0.641.
